Test results taken from publication PMC6949271.
These are yes or no findings as the source states them, for the method shown. In cells and extracts the contact can be indirect. Some entries that bind do so weakly or less than the wild type. One block for each binder: values may come before it.

By UniProt entry, the sequences of proteins in these tests, tags left out. Where a name states a change or a piece, a line headed by the entry shows the natural chain unless it says otherwise.
UniProt Q92547: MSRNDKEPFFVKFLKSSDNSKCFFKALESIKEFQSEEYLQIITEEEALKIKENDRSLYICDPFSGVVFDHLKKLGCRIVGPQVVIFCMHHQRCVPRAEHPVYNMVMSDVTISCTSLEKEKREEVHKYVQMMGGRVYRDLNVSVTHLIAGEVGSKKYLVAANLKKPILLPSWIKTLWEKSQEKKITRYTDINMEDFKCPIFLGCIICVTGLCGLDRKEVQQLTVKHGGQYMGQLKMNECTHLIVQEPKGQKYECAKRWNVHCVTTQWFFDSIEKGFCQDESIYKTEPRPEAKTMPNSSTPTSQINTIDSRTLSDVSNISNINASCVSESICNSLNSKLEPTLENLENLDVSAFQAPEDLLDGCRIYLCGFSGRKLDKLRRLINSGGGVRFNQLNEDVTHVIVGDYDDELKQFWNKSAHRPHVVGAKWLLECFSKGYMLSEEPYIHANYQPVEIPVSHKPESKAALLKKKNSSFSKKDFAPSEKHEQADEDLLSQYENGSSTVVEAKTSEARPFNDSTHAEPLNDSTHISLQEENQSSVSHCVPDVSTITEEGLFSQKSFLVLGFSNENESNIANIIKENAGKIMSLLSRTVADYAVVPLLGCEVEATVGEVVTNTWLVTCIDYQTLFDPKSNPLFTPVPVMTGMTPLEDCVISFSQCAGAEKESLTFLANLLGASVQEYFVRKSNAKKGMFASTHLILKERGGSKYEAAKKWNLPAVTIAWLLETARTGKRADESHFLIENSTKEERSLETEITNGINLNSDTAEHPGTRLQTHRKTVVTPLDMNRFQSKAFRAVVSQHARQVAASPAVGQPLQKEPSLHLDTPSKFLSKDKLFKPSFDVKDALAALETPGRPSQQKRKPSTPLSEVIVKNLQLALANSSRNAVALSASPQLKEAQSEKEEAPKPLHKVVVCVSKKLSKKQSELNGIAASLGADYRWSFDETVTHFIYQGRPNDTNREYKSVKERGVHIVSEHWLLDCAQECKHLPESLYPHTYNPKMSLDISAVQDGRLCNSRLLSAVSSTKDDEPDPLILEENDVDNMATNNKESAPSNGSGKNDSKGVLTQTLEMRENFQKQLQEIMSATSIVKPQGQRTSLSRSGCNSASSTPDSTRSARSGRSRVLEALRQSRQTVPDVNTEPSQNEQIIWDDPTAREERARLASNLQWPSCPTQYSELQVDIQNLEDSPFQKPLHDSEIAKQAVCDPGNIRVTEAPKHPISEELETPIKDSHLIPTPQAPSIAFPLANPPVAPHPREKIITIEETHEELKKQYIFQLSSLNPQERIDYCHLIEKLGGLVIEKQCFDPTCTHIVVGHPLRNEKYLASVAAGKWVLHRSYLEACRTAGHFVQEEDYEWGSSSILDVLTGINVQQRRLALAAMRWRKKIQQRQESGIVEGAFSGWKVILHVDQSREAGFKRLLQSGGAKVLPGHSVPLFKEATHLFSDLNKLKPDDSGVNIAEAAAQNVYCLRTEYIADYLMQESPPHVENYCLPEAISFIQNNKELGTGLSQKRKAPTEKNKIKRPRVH

Assays:
Test in all cases: co-IP; GFP-tagged TOPBP1 constructs captured on GFP-Trap magnetic agarose from Benzonase-treated lysates of transfected 293FT cells (200 mM NaCl, 2 mM EDTA, 4 °C); endogenous partners detected by blot
[1] = target: GFP-tagged full-length TOPBP1 K704A (BRCT5 mutant) (UniProt Q92547)
[2] = target: GFP-tagged full-length TOPBP1, wild type (UniProt Q92547)
[3] = target: GFP-tagged full-length TOPBP1 K154A/K155A (BRCT1 mutant) (UniProt Q92547)

binding [1]: no binding
binding [2]: binds
binding [3]: no binding
B1: Treacle, endogenous (293FT) (protein, UniProt Q13428 1-1488)
chain: MAEARKRRELLPLIYHHLLRAGYVRAAREVKEQSGQKCFLAQPVTLLDIYTHWQQTSELGRKRKAEEDAALQAKKTRVSDPISTSESSEEEEEAEAETAKATPRLASTNSSVLGADLPSSMKEKAKAETEKAGKTGNSMPHPATGKTVANLLSGKSPRKSAEPSANTTLVSETEEEGSVPAFGAAAKPGMVSAGQADSSSEDTSSSSDETDVEGKPSVKPAQVKASSVSTKESPARKAAPAPGKVGDVTPQVKGGALPPAKRAKKPEEESESSEEGSESEEEAPAGTRSQVKASEKILQVRAASAPAKGTPGKGATPAPPGKAGAVASQTKAGKPEEDSESSSEESSDSEEETPAAKALLQAKASGKTSQVGAASAPAKESPRKGAAPAPPGKTGPAVAKAQAGKREEDSQSSSEESDSEEEAPAQAKPSGKAPQVRAASAPAKESPRKGAAPAPPRKTGPAAAQVQVGKQEEDSRSSSEESDSDREALAAMNAAQVKPLGKSPQVKPASTMGMGPLGKGAGPVPPGKVGPATPSAQVGKWEEDSESSSEESSDSSDGEVPTAVAPAQEKSLGNILQAKPTSSPAKGPPQKAGPVAVQVKAEKPMDNSESSEESSDSADSEEAPAAMTAAQAKPALKIPQTKACPKKTNTTASAKVAPVRVGTQAPRKAGTATSPAGSSPAVAGGTQRPAEDSSSSEESDSEEEKTGLAVTVGQAKSVGKGLQVKAASVPVKGSLGQGTAPVLPGKTGPTVTQVKAEKQEDSESSEEESDSEEAAASPAQVKTSVKKTQAKANPAAARAPSAKGTISAPGKVVTAAAQAKQRSPSKVKPPVRNPQNSTVLARGPASVPSVGKAVATAAQAQTGPEEDSGSSEEESDSEEEAETLAQVKPSGKTHQIRAALAPAKESPRKGAAPTPPGKTGPSAAQAGKQDDSGSSSEESDSDGEAPAAVTSAQVIKPPLIFVDPNRSPAGPAATPAQAQAASTPRKARASESTARSSSSESEDEDVIPATQCLTPGIRTNVVTMPTAHPRIAPKASMAGASSSKESSRISDGKKQEGPATQVSKKNPASLPLTQAALKVLAQKASEAQPPVARTQPSSGVDSAVGTLPATSPQSTSVQAKGTNKLRKPKLPEVQQATKAPESSDDSEDSSDSSSGSEEDGEGPQGAKSAHTLGPTPSRTETLVEETAAESSEDDVVAPSQSLLSGYMTPGLTPANSQASKATPKLDSSPSVSSTLAAKDDPDGKQEAKPQQAAGMLSPKTGGKEAASGTTPQKSRKPKKGAGNPQASTLALQSNITQCLLGQPWPLNEAQVQASVVKVLTELLEQERKKVVDTTKESSRKGWESRKRKLSGDQPAARTPRSKKKKKLGAGEGGEASVSPEKTSTTSKGKAKRDKASGDVKEKKGKGSLGSQGAKDEPEEELQKGMGTVEGGDQSNPKSKKEKKKSDKRKKDKEKKEKKKKAKKASTKDSESPSQKKKKKKKKTAEQTV

binding [1]: binds
binding [2]: binds
binding [3]: no binding
B2: RAD9, endogenous (293FT) (protein, UniProt Q99638 1-391)
chain: MKCLVTGGNVKVLGKAVHSLSRIGDELYLEPLEDGLSLRTVNSSRSAYACFLFAPLFFQQYQAATPGQDLLRCKILMKSFLSVFRSLAMLEKTVEKCCISLNGRSSRLVVQLHCKFGVRKTHNLSFQDCESLQAVFDPASCPHMLRAPARVLGEAVLPFSPALAEVTLGIGRGRRVILRSYHEEEADSTAKAMVTEMCLGEEDFQQLQAQEGVAITFCLKEFRGLLSFAESANLNLSIHFDAPGRPAIFTIKDSLLDGHFVLATLSDTDSHSQDLGSPERHQPVPQLQAHSTPHPDDFANDDIDSYMIAMETTIGNEGSRVLPSISLSPGPQPPKSPGPHSEEEDEAEPSTVPGTPPPKKFRSLFFGSILAPVRSPQGPSPVLAEDSEGEG
